In patent publication US6403626B1, “Benzimidazole derivatives” (Synaptic Pharmaceutical Corporation, priority 1994, dated 2002):

Tests used:
[1] = target: T1, α2A Human Adrenergic Receptor (Homo sapiens, UniProt P08913); assay: Equilibrium competition binding, [3H] rauwolscine, membranes of transfected LM(tk-) cells; conditions: for pKi Alpha-2 A: cloned human receptor, [3H] rauwolscine
T1 sequence (P08913 1-465): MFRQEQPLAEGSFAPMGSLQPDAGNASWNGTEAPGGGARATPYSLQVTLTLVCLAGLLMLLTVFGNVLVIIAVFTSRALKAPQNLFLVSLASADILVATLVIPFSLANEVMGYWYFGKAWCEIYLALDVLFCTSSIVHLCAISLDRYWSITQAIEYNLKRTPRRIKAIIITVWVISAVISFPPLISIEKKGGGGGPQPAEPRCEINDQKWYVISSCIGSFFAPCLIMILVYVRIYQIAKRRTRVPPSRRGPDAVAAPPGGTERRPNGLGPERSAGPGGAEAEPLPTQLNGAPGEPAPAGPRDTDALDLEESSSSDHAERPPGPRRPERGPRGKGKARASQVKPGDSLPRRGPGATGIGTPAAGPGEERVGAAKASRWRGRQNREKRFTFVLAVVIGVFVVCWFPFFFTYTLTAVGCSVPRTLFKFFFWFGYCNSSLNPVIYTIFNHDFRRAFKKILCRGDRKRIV

[2] = target: T1, α2A Human Adrenergic Receptor; assay: cell-based
[3] = target: T1, α2A Human Adrenergic Receptor; conditions: for I.A Alpha-2 A: functional cAMP assay; for pEC50 Alpha-2 A: inhibition of forskolin-stimulated cAMP, NA: Not Active

| SMILES | Ki [1] | EC50 [2] | I.A Alpha-2 A [3] | pKi Alpha-2 A [1] | pEC50 Alpha-2 A [3] |
| --- | --- | --- | --- | --- | --- |
| CCCn1cnc2ccc(NC3=NCCN3)cc21 [Example 15, 3-Propyl-5-(2-imidazolin-2-ylamino)Benzimidazole] | 0.115 µM | – | – | – | – |
| CC(C)n1cnc2ccc(NC3=NCCN3)cc21 [Example 20, 3-Isopropyl-5-(2-imidazolin-2-ylamino)Benzimidazole] | 0.24 µM | – | – | – | – |
| CC(C)n1cnc2ccc(NC3=NCCN3)c(Br)c21 [Example 21, 3-Isopropyl-4-bromo-5-(2-imidazolin-2-ylamino)Benzimidazole] | 0.00646 µM | 0.251 µM | 0.90 | – | – |
| OCCn1cnc2c(Br)c(NC3=NCCN3)ccc21 [Example 38, 1-(2-Hydroxyethyl)-4-bromo-5-(2-imidazolin-2-ylamino)Benzimidazole] | 0.0389 µM | 0.0355 µM | 1.00 | – | – |
| COc1cccc(Cn2cnc3c(Br)c(NC4=NCCN4)ccc32)c1 [Example 37, 1-(3-Methoxybenzyl)-4-bromo-5-(2-imidazolin-2-ylamino)Benzimidazole] | 0.00661 µM | 0.0204 µM | 0.60 | – | – |
| CC(C)(C)c1nc2ccc(NC3=NCCN3)c(Br)c2[nH]1 [Example 45, 2-tert-Butyl-4-bromo-5-(2-imidazolin-2-ylamino)Benzimidazole] | 0.00851 µM | 0.0525 µM | 1.00 | – | – |
| Brc1cc(NC2=NCCN2)c(Br)c2[nH]cnc12 [Example 58, 4,7-Dibromo-5-(2-imidazolin-2-ylamino)Benzimidazole] | 0.00129 µM | 0.00245 µM | 1.00 | – | – |
| Brc1c(NC2=NCCN2)ccc2c1ncn2Cc1ccccc1 [Example 33, 1-Benzyl-4-bromo-5-(2-imidazolin-2-ylamino)Benzimidazole] | 0.00339 µM | – | – | – | – |
| Cc1nc2ccc(NC3=NCCN3)c(Br)c2[nH]1 [Example 42, 2-Methyl-4-bromo-5-(2-imidazolin-2-ylamino)Benzimidazole] | 0.0102 µM | 0.0234 µM | 1.00 | – | – |
| Brc1c(NC2=NCCN2)ccc2c1ncn2C1CCCC1 [Example 26, 1-Cyclopentyl-4-bromo-5-(2-imidazolin-2-ylamino)Benzimidazole] | 0.0117 µM | – | – | – | – |
| Cc1cc2nc[nH]c2cc1NC1=NCCN1 [Example 49, 6-Methyl-5-(2-imidazolin-2-ylamino)Benzimidazole] | 0.0195 µM | 0.0912 µM | 0.80 | – | – |
| CCCn1cnc2c(Br)c(NC3=NCCN3)ccc21 [Example 14, 1-Propyl-4-bromo-5-(imidazolin-2-ylamino)Benzimidazole] | – | – | 1.00 | 8.02 | 6.60 |
| Clc1cccc(Cl)c1N=C1NCCN1 [Clonidine, reference compound] | – | – | 1 | – | – |
| Brc1c(NC2=NCCN2)ccc2ncn(CC3CCCCC3)c12 [Example 31, 3-Cyclohexylmethyl-4-bromo-5-(2-imidazolin-2-ylamino)Benzimidazole] | 0.00661 µM | – | – | – | – |
| Cc1cc(NC2=NCCN2)cc2[nH]cnc12 [Example 52, 7-Methyl-5-(2-imidazolin-2-ylamino)Benzimidazole] | 0.0245 µM | 0.0813 µM | 0.90 | – | – |
| CCCn1cnc2ccc(NC3=NCCN3)c(Br)c21 [Example 16, 3-Propyl-4-bromo-5-(2-imidazolin-2-ylamino)Benzimidazole] | – | 0.398 µM | 1.00 | – | – |
| CCc1cc(NC2=NCCN2)cc2[nH]cnc12 [Example 55, 7-Ethyl-5-(2-imidazolin-2-ylamino)Benzimidazole] | 0.0437 µM | 0.0513 µM | 0.60 | – | – |
| COc1ccc(Cn2cnc3c(Br)c(NC4=NCCN4)ccc32)cc1 [Example 36, 1-(4-Methoxybenzyl)-4-bromo-5-(2-imidazolin-2-ylamino)Benzimidazole] | 0.00955 µM | 0.0055 µM | 0.60 | – | – |
| Cn1cnc2ccc(NC3=NCCN3)c(Br)c21 [Example 12, 3-Methyl-4-bromo-5-(imidazolin-2-ylamino)Benzimidazole] | – | – | 1.00 | 8.20 | 7.27 |
| CC(C)Cn1cnc2c(Br)c(NC3=NCCN3)ccc21 [Example 23, 1-Isobutyl-4-bromo-5-(2-imidazolin-2-ylamino)Benzimidazole] | 0.0126 µM | 0.692 µM | 0.90 | – | – |
| c1ccc(-c2cc(NC3=NCCN3)cc3[nH]cnc23)cc1 [Example 57, 7-Phenyl-5-(2-imidazolin-2-ylamino)Benzimidazole] | 0.0166 µM | – | 0.50 | – | – |
| Cn1cnc2cc(NC3=NCCN3)ccc21 [Example 9, 1-Methyl-5-(2-imidazolin-2-ylamino)Benzimidazole] | 0.0182 µM | 0.224 µM | 1.00 | – | – |

| SMILES | Ki [1] | EC50 [2] | I.A Alpha-2 A [3] | pKi Alpha-2 A [1] | pEC50 Alpha-2 A [3] |
| --- | --- | --- | --- | --- | --- |
| Cc1c(N=C2NCCN2)ccc2[nH]cnc12 [Example 4, 4-Methyl-5-(2-imidazolin-2-ylamino)Benzimidazole] | – | 0.000389 µM | – | – | – |
| CC(C)n1cnc2c(Br)c(NC3=NCCN3)ccc21 [Example 18, 1-Isopropyl-4-bromo-5-(2-imidazolin-2-ylamino)Benzimidazole] | 0.00447 µM | 0.0832 µM | 0.80 | – | – |
| Brc1c(NC2=NCCN2)ccc2ncn(C3CCCC3)c12 [Example 28, 3-Cyclopentyl-4-bromo-5-(2-imidazolin-2-ylamino)Benzimidazole] | 0.00389 µM | – | – | – | – |
| Clc1cc(NC2=NCCN2)c(Br)c2[nH]cnc12 [Example 60, 4-Bromo-7-chloro-5-(2-imidazolin-2-ylamino)Benzimidazole] | 0.000891 µM | 0.000589 µM | 1 | – | – |
| Brc1c(NC2=NCCN2)ccc2ncn(Cc3ccccc3)c12 [Example 35, 3-Benzyl-4-bromo-5-(2-imidazolin-2-ylamino)Benzimidazole] | 0.00347 µM | – | – | – | – |
| CC(C)n1cnc2c(I)c(NC3=NCCN3)ccc21 [Example 19, 1-lsopropyl-4-Iodo-5-(2-imidazolin-2-ylamino)Benzimidazole] | 0.00468 µM | 0.49 µM | 0.70 | – | – |
| NCCn1cnc2c(Br)c(NC3=NCCN3)ccc21 [Example 40, 1-(2-Aminoethyl)-4-bromo-5-(2-imidazolin-2-ylamino)Benzimidazole] | 0.398 µM | 0.724 µM | 0.80 | – | – |
| Cn1cnc2c(Br)c(NC3=NCCN3)ccc21 [Example 10, 1-Methyl-4-bromo-5-(2-imidazolin-2-ylamino)Benzimidazole] | 0.00589 µM | 0.00302 µM | 1.00 | – | – |
| Brc1cc2nc[nH]c2c(Br)c1NC1=NCCN1 [Example 50, 4,6-Dibromo-5-(2-imidazolin-2-ylamino)Benzimidazole] | 0.00692 µM | 0.0158 µM | 1.00 | – | – |
| CC(C)n1cnc2cc(NC3=NCCN3)ccc21 [Example 17, 1-Isopropyl-5-(2-imidazolin-2-ylamino)Benzimidazole] | – | – | 1.00 | – | – |
| c1ccc(Cn2cnc3ccc(NC4=NCCN4)cc32)cc1 [Example 34, 3-Benzyl-5-(2-imidazolin-2-ylamino)Benzimidazole] | 0.038 µM | – | – | – | – |
| Clc1cc(NC2=NCCN2)cc2[nH]cnc12 [Example 53, 7-Chloro-5-(2-imidazolin-2-ylamino)Benzimidazole] | 0.0148 µM | 0.0575 µM | 1.00 | – | – |
| Ic1cc(NC2=NCCN2)cc2[nH]cnc12 [Example 54, 7-Iodo-5-(2-imidazolin-2-ylamino)Benzimidazole] | 0.049 µM | 1.26 µM | 0.70 | – | – |
| CCCc1c(NC2=NCCN2)ccc2nc[nH]c12 [Example 7, 4-n-Propyl-5-(2-imidazolin-2-ylamino)Benzimidazole] | – | 0.00724 µM | 1.00 | – | – |
| c1ccc(Cn2cnc3cc(NC4=NCCN4)ccc32)cc1 [Example 32, 1-Benzyl-5-(2-imidazolin-2-ylamino)Benzimidazole] | 0.011 µM | – | – | – | – |
| c1cc2c(cc1NC1=NCCN1)ncn2CC1CCCCC1 [Example 29, 1-Cyclohexylmethyl-5-(2-imidazolin-2-ylamino)Benzimidazole] | 0.0263 µM | – | – | – | – |
| Ic1c(NC2=NCCN2)ccc2nc[nH]c12 [Example 5, 4-Iodo-5-(2-imidazolin-2-ylamino)Benzimidazole] | 0.00355 µM | – | 1.00 | – | – |
| Brc1c(NC2=NCCN2)ccc2nc(C3CC3)[nH]c12 [Example 47, 2-Cyclopropyl-4-bromo-5-(2-imidazolin-2-ylamino)Benzimidazole] | 0.00676 µM | 0.0468 µM | – | – | – |
| Brc1c(NC2=NCCN2)ccc2c1ncn2CC1CCCCC1 [Example 30, 1-Cyclohexylmethyl-4-bromo-5-(2-imidazolin-2-ylamino)Benzimidazole] | 0.0174 µM | – | – | – | – |
| Brc1c(NC2=NCCN2)ccc2nc[nH]c12 [Example 2, 4-Bromo-5-(2-imidazolin-2-ylamino)Benzimidazole] | 0.00389 µM | – | 1.00 | – | – |
| CCCCc1c(NC2=NCCN2)ccc2nc[nH]c12 [Example 8, 4-n-Butyl-5-(2-imidazolin-2-ylamino)Benzimidazole] | – | 0.135 µM | 0.90 | – | – |
| Brc1c(NC2=NCCN2)ccc2nc(C(c3ccccc3)c3ccccc3)[nH]c12 [Example 48, 2-Diphenylmethyl-4-bromo-5-(2-imidazolin-2-ylamino)Benzimidazole] | 0.0776 µM | – | – | – | – |
